The RNAGym collection of RNA variant scans (doi:10.1093/nar/gkz1192)
Read counts are not given, so values of variants with three or more changes are uncertain.

B1: CPEB3 Ribozyme (parent)
chain: UAACAGGGGGCCACAGCAGAAGCGUUCACGUCGCAGCCCCUGUCAGAUUCUGGUGAAUCUGCGAAUUCUGCUGUAUAUCUC

Variants of: B1
Assay: self-cleavage, relative activity (ratio to wild type); higher = more cleavage; in vitro, sequencing
In short: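 For each CPEB3 ribozyme variant, relative activity is its cleaved/total read fraction divided by the unmutated ribozyme's. Barcoded error-prone PCR libraries were transcribed by T7 RNA polymerase (5 hours, 37°C) and held in DNase I for 15 min before an EDTA stop, with cleavage occurring throughout. Template-switching reverse transcription and Illumina sequencing were used to read the RNAs. A 5-read minimum applied, and results are the mean of three batches.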

| Variant | self-cleavage |
| --- | --- |
| A13G U26C U67A | 0.07 |
| A13G U26G A45G U72C U78C | 0.74 |
| A13G U26G C29A A56U A64G U66C | 0.05 |
| A13G U26G U60A C81U | 0.07 |
| A13G U31A A35G U60C A65G | 0.09 |
| A13G U31A A45U A57G | 0.22 |
| A13G U31A A56G U58C | 0.2 |
| A13G U31A C34A A64G | 0.12 |
| A13G U31A C68U U80C | 0.27 |
| A13G U31A U43C U58C | 0.08 |
| A13G U31A U49C | 0.34 |
| A13G U31A U67C | 0.12 |
| A13G U31C G33A U41A | 0.07 |
| A13G U31C G36C G53A A65U | 0.09 |
| A13G U31C U41C U69C U80A | 0.17 |
| A13G U31C U51C | 0.34 |
| A13G U31C U54G U69C | 0.07 |
| A13G U31C U78C | 0.52 |
| A13G U41A G63A U67A U72A | 0.05 |
| A13G U41C A45G U78A | 0.58 |
| A13G U41C A64G | 0.63 |
| A13G U41C U49C | 0.25 |
| A13G U41C U54C | 0.83 |
| A13G U41C U67C U74C | 0.17 |

| Variant | self-cleavage |
| --- | --- |
| A13G U43A A47G U74A | 1.26 |
| A13G U43A C50G U78C | 0.25 |
| A13G U43A U48C U58C U72C | 0.09 |
| A13G U43A U58A | 0.38 |
| A13G U43A U80C | 1.12 |
| A13G U43C A45C U72A | 0.14 |
| A13G U43C A47G | 0.44 |
| A13G U43C A65G | 0.2 |
| A13G U43C G53A U60C U67C A75G | 0.08 |
| A13G U43C U66C U67C U69A | 0.21 |
| A13G U43G C62G U80C | 0.2 |
| A13G U48C A77G U78C | 0.2 |
| A13G U49C U67A G70A | 0.12 |
| A13G U51A A56G | 0.53 |
| A13G U51C C68A | 0.33 |
| A13G U51C G52U A56G A64U | 0.19 |
| A13G U51C G73A U74C | 1.34 |
| A13G U51C U54C A56U U58A | 0.25 |
| A13G U51C U80C | 0.81 |
| A13G U51G A77G | 0.6 |
| A13G U51G U58C | 0.22 |
| A13G U54A A57G U67A | 0 |
| A13G U54A A64G | 0.7 |
| A13G U54C C71U U72C | 0.1 |

| Variant | self-cleavage |
| --- | --- |
| A13G U54C G61A | 0.36 |
| A13G U54C U58A U60C U67G | 0.03 |
| A13G U54G U74A | 1.11 |
| A13G U58C U60A | 0.12 |
| A13G U60A A65U | 0.11 |
| A13G U60A U72C | 0.33 |
| A13G U60C U78C | 0.38 |
| A13G U69A A77G | 0.47 |
| A13G U74C U80A | 0.8 |
| A13U A15C A28G A35G U51C G73A | 0.75 |
| A13U A15C A64G U74C A75U | 0.39 |
| A13U A15C U66C | 0.18 |
| A13U A15G A18U C38A U41A C68A C81U | 0.04 |
| A13U A15G A18U U48C A56G A77G U78A | 0.07 |
| A13U A15G A20G A64G | 0.29 |
| A13U A15G A21G U49A | 0.1 |
| A13U A15G A21U A28C U41C A56G U78C | 0.03 |
| A13U A15G A28G C34U U49C U72C A77U | 0.07 |
| A13U A15G A45G U80C | 1.01 |
| A13U A15G A56G U78C | 0.93 |
| A13U A15G C32U U51C | 0.19 |
| A13U A15G U25A U43C A45G A57U | 0.04 |
| A13U A15G U25A U60A U69A | 0.01 |
| A13U A15G U25C A35G U72A | 0.04 |

| Variant | self-cleavage |
| --- | --- |
| A13U A15G U25C U41G U76A A77G | 0.1 |
| A13U A15G U26C | 0.25 |
| A13U A15G U41C U60C | 0.35 |
| A13U A15G U48C C62A | 0.32 |
| A13U A15G U51A A56G U72A | 0.45 |
| A13U A15U A20G U43C U80A | 0.1 |
| A13U A15U A64G | 0.6 |
| A13U A15U U26A U51A U54A | 0.33 |
| A13U A15U U31C U41C | 0.59 |
| A13U A15U U41A G63A U67C | 0.49 |
| A13U A15U U60C | 0.12 |
| A13U A15U U67C U72C | 0.18 |
| A13U A18C U67A | 0.22 |
| A13U A18G A20C A21G A35U U49A U67A | 0.05 |
| A13U A18G A20U A47G G53A U80C | 0.08 |
| A13U A18G A20U U58C U66C U69C U80A | 0.07 |
| A13U A18G A28G | 0.35 |
| A13U A18G G22A U25C U51C U54C | 0.07 |
| A13U A18G G24A U26A U48C G70A U72C | 0.08 |
| A13U A18G U26C U60C U78A | 0.12 |
| A13U A18G U31G U43A U69C U72C | 1.03 |
| A13U A18G U41A U58C | 0.07 |
| A13U A18G U41C A75U | 0.96 |
| A13U A18G U41C G73A | 1.18 |

| Variant | self-cleavage |
| --- | --- |
| A13U A18G U54G | 0.62 |
| A13U A18G U54G G61C U74C | 0.26 |
| A13U A18G U60A U80C | 0.41 |
| A13U A18U A35U | 0.22 |
| A13U A18U A56G A64C U72A | 0.18 |
| A13U A18U A64U | 0.19 |
| A13U A18U U78C | 0.61 |
| A13U A20C U25C A47G U58C | 0.23 |
| A13U A20G A21G U26G U41C U51C U80C | 0.05 |
| A13U A20G A35U U60C U72C | 0.44 |
| A13U A20G A47G U51C | 0.14 |
| A13U A20G C39A A45U G52A U54C C62U | 0.06 |
| A13U A20G G24A U78A | 0.08 |
| A13U A20G U25C C71U U74C U76C | 0.13 |
| A13U A20G U26A | 0.92 |
| A13U A20G U41A A75G | 0.07 |
| A13U A20G U43A U48C | 0.65 |
| A13U A20G U67G | 0.25 |
| A13U A20G U80C | 1.25 |
| A13U A20U A45G A64G | 0.11 |
| A13U A20U A45U | 0.5 |
| A13U A20U U26C A28U A56U G63U A65G | 0.09 |
| A13U A20U U43C A65G | 0.33 |
| A13U A20U U49C C71G | 0.06 |

| Variant | self-cleavage |
| --- | --- |
| A13U A20U U72C U80A | 0.34 |
| A13U A21G A35U U43C U48C A64G | 0.05 |
| A13U A21G A45C A57G U60C A64G | 0.07 |
| A13U A21G A45C C71G | 0.12 |
| A13U A21G A47G U51A | 0.35 |
| A13U A21G A57U | 0.13 |
| A13U A21G C29U U49A | 0.09 |
| A13U A21G C44U A56G U69G | 0.11 |
| A13U A21G G30A A56G U74C | 0.16 |
| A13U A21G G30A A75U | 0.16 |
| A13U A21G G30U | 0.09 |
| A13U A21G G33U U48C A56U U58C C59G | 0.02 |
| A13U A21G G46U U60G U74C | 0.11 |
| A13U A21G U25C U43C U72A | 0.18 |
| A13U A21G U26C G36A U80C | 0.05 |
| A13U A21G U31A A35G | 0.99 |
| A13U A21G U43C U54C U74C | 0.04 |
| A13U A21G U80A | 0.15 |
| A13U A21U A28G U49A C62U U72C U74C | 0.06 |
| A13U A21U C39A | 0.18 |
| A13U A21U U26C U31A A45G G53A | 0.06 |
| A13U A21U U41C U51C U67G U72A | 0.06 |
| A13U A21U U43C A64C U80C | 0.08 |
| A13U A28C U31C | 0.43 |

| Variant | self-cleavage |
| --- | --- |
| A13U A28G C62U A65G U72C U80A | 0.08 |
| A13U A28G U31A | 0.39 |
| A13U A28G U41C U58C | 0.29 |
| A13U A28G U43A U48C U80G C81A | 0.25 |
| A13U A28G U48C A65C | 0.11 |
| A13U A28G U51C A57G U67C | 0.13 |
| A13U A28G U58A U78C | 0.11 |
| A13U A28U A57G | 0.93 |
| A13U A28U C44U U51A | 0.16 |
| A13U A28U G63A | 0.76 |
| A13U A28U U31A U69C | 0.14 |
| A13U A28U U41A | 0.2 |
| A13U A28U U41A G46U U58A | 0.13 |
| A13U A28U U41C | 0.64 |
| A13U A28U U43C U58C U80C | 0.08 |
| A13U A28U U48C U67C A77U | 0.16 |
| A13U A28U U54C A75G | 0.93 |
| A13U A28U U72A U74C | 0.21 |
| A13U A35G A47G U51A | 1.28 |
| A13U A35G A64G U76C | 1.31 |
| A13U A35G A64G U78C | 1.34 |
| A13U A35G U54G A65G G70A | 0.5 |
| A13U A35U U48A C59U A65G U80C | 0.06 |
